# In the supplement of paper PMC3334620:
# The full ranking holds about 33,000 sequences; the median of “E-score (-0.5 to 0.5)” is about -0.035, and the highest 2% start at about 0.35. This is one part of the list.
# Target: T1, Pdr3 (UniProt P33200)
# T1 sequence: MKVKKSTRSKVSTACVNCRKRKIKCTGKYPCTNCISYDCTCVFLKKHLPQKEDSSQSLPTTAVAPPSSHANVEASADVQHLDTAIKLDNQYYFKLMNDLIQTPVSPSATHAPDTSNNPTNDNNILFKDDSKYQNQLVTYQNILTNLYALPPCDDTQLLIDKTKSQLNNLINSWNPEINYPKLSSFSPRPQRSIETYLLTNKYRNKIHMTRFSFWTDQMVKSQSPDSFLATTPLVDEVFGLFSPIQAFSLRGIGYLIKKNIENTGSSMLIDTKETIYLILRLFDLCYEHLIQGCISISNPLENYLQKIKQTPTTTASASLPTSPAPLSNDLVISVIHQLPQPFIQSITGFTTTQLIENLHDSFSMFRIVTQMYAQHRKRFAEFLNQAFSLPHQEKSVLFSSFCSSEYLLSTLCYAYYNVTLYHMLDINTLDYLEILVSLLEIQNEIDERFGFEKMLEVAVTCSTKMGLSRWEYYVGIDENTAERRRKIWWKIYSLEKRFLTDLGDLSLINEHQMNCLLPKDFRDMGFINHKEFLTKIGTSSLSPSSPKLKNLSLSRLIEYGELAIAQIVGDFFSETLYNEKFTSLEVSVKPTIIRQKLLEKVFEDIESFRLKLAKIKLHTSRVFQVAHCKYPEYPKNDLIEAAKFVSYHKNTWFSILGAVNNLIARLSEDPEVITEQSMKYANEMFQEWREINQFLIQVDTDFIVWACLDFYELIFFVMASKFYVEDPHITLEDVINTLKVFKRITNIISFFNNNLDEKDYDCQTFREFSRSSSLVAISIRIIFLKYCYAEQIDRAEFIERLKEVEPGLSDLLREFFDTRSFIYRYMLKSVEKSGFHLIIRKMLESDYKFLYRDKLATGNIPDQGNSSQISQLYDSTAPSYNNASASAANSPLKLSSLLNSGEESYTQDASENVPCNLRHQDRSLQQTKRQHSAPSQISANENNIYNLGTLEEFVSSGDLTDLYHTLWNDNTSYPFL
# Assay: PBM E-score (8-mer binding enrichment) (E-score (-0.5 to 0.5)); higher = stronger / more preferred TF binding; most listed sequences are background and not binding sites
# Conditions: protein concentration: 200 nM; construct: GST-full length
# In short: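 Yeast transcription factors, full-length or as DNA-binding domains, were expressed with a GST tag using PURExpress in vitro transcription/translation. At about 100-200 nM they were applied to universal all-10-mer Agilent arrays, double-stranded by primer extension on fresh or once-stripped slides. Fluorescent anti-GST detected bound protein, and masliner normalised the scans. E-scores for ungapped eight-base words, pooled with reverse complements, came from the Universal PBM Analysis Suite.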
row,Sequence,PBM E-score
1,CACGTTGC,-0.175
2,AGGGAGTA,-0.205
3,GGACCCCC,-0.0544
4,GAGCGCGC,0.283
5,ACACTCCT,-0.0522
6,AATGATAA,0.106
7,AATTCCAC,0.193
8,TATACGAA,0.0271
9,GGCCAACC,0.0991
10,GGCCAGAC,0.075
11,GGATTAAA,0.119
12,GCGGTTGA,0.169
13,ATTTAGTA,0.173
14,TCTGGCCA,-0.0481
15,ATGGGGCG,0.0867
16,ATCGACGC,0.0707
17,GCGATACC,-0.00065
18,AGAACTGA,-0.0933
19,CCTTAGCA,-0.0732
20,CGAGCTCG,0.224
21,GGCGTAGA,-0.0518
22,CTAACACC,-0.189
23,AATTCGCA,0.255
24,GGGCTCAA,-0.118
25,CAGAGGTA,0.00282

row,Sequence,PBM E-score
1,GGATCCAC,0.203
2,GATGCCGC,0.0903
3,GACACTAC,-0.00203
4,CTAGAATA,-0.0684
5,ATACTCGC,0.162
6,GATCACGA,-0.11
7,CGCGTAGC,-0.044
8,CCCTACGG,-0.00133
9,CAGACATA,0.0453
10,CCTTCAGC,-0.301
11,GTCTTCAA,-0.189
12,ACTAGCGA,0.00219
13,AAACGGCA,0.079
14,ATACATCA,-0.00985
15,TACTCCAA,-0.105
16,CTTCAGTC,-0.179
17,TCTTCGCA,0.0511
18,AACGAAGG,-0.259
19,ACGTCAAC,-0.0164
20,GATCGACA,-0.157
21,CCATTTGA,-0.112
22,CGTGCTAA,-0.171
23,AATCTTGT,0.126
24,GTCGCAGA,0.036
25,ACCCTCCC,0.299

row,Sequence,PBM E-score
1,AGTCTAGA,-0.29
2,TCCAAGGA,-0.00825
3,GATCAGGC,-0.00771
4,ATTGAGTG,0.0622
5,AAGATGGA,-0.00023
6,AGCGTTGG,-0.244
7,GCTGCCCA,-0.0281
8,GCTAATCA,-0.062
9,TATTGCCA,-0.0334
10,GCGCTGGA,0.141
11,ATTCGCTC,0.0456
12,CGAAGTCA,-0.15
13,GAGCACTA,-0.126
14,ATCGCAAA,0.0175
15,TACAATCA,-0.193
16,AAATGTAG,-0.12
17,ATTCGTAC,0.0686
18,AAGAGATA,-0.206
19,ACAGCTCC,0.0544
20,GATGTTCC,0.336
21,CATCTCGG,0.257
22,ATATGACG,0.0426
23,ACCACAGA,-0.126
24,AAATCGTC,-0.0133
25,AGAGCCAG,-0.271

row,Sequence,PBM E-score
1,CACCATTA,0.103
2,ACTGCTTA,-0.252
3,AGCCGCAT,0.0366
4,CTCTAGAC,-0.245
5,ACATACTA,0.0877
6,ATGAAAAG,-0.123
7,AACCACCA,-0.0596
8,AACGCTTC,0.0186
9,CTAAAGAA,-0.203
10,ACCGCGGG,0.472
11,AAAGTAGG,-0.0329
12,AGAGGCTG,-0.365
13,GTTGACTA,-0.205
14,ACATGTAA,-0.0728
15,GCCTTGGA,-0.0995
16,AACTCTCT,-0.0885
17,ACTGCCCG,0.179
18,CTCAAACA,-0.0298
19,TAGGCCCA,-0.256
20,ATATCTGC,-0.044
21,ACGATAAA,-0.307
22,ACGTCCCT,-0.213
23,ATTGCACC,-0.0754
24,CCTTGATA,-0.156
25,ATATTAAT,0.285

row,Sequence,PBM E-score
1,ATCTAGCA,-0.152
2,GGCGCTTA,-0.0877
3,ACGACAAC,0.19
4,ATGTGAAC,-0.153
5,AGCGCTTA,0.0658
6,TAAATTAA,0.0873
7,AGCAGTAC,-0.139
8,ACCACGTC,-0.174
9,CTCTCGTA,-0.00771
10,GCACCCCC,-0.0953
11,ACCGTGAT,0.0525
12,ACCGGGTG,0.318
13,ACCTGACG,-0.179
14,GGGGAACC,-0.157
15,TGGTCACA,-0.118
16,CTGACCAA,-0.0236
17,AGCAACCT,-0.0661
18,AACAGGTG,-0.152
19,CCAAATCG,-0.113
20,CCTCAGAC,0.0121
21,GGGGTACA,-0.134
22,ACAATACC,0.0775
23,ACCACATC,0.0699
24,ATGTTGAG,-0.0775
25,AACTTTGG,-0.108

row,Sequence,PBM E-score
1,GCAATTCC,0.22
2,AAACAAGT,-0.0921
3,CTGGGGCC,0.0244
4,GCAATGGA,-0.0873
5,ACTACCGG,0.11
6,CTGCCTCA,-0.27
7,GATTAGCA,-0.0144
8,TCGCAACA,-0.038
9,ATTGACCA,-0.0974
10,CGCTAATA,0.158
11,GTTAAACA,-0.182
12,AGCCCCGC,0.11
13,AAGTGGCA,-0.0456
14,GATGCCCC,-0.161
15,AAACCCTG,-0.023
16,CACTCGGG,0.173
17,CCCCAGCG,-0.163
18,TACCCCAA,-0.0565
19,AGGTGCTG,-0.0671
20,AAAATTAG,0.109
21,AACGAGAC,-0.102
22,CATACAAA,0.141
23,AATACAGT,-0.144
24,CTCACGTA,-0.103
25,AAGTTTAA,-0.158

row,Sequence,PBM E-score
1,CGAACGTC,-0.146
2,AAAGGGTT,-0.153
3,ACATACAA,-0.0319
4,GACCTGCA,-0.288
5,ATGCCTGA,-0.159
6,ATTAGCCC,-0.0315
7,CTCCCAAG,-0.264
8,GTCCTTCA,-0.0595
9,CATCCGTC,0.249
10,AGATTGCC,0.0473
11,CGACAATA,0.156
12,TCGCATAA,0.0329
13,GTGATACA,-0.133
14,GAATGCCC,0.0734
15,ATGTGGAG,-0.0421
16,CCAGATTC,-0.141
17,CACGCCCG,0.208
18,TCGCAGCA,-0.174
19,GAAACATC,-0.0968
20,ACCTAATC,0.0254
21,AAAGATAT,0.139
22,GGAAGCAA,0.113
23,GACACGGC,0.171
24,ATCATTTA,0.0551
25,CATAAGGC,-0.0651

row,Sequence,PBM E-score
1,ATTGCGCG,0.271
2,CTACATCA,-0.0584
3,TAGTATCA,0.172
4,AGGTGATG,-0.209
5,GAAAGGAA,0.104
6,GCACTGTA,0.0604
7,ATTGGAAC,0.137
8,AATGACCT,-0.184
9,CCATGGAA,0.156
10,GTGTGGAA,-0.0589
11,CTCTGTTA,0.00683
12,AGTAGAGG,-0.236
13,TAACTGTA,-0.323
14,AGTTACGC,-0.182
15,GCCACGAC,0.0242
16,CTGACCAG,-0.099
17,ATAGACGG,0.165
18,AGCGAGAG,-0.0257
19,ATGTCGTC,-0.0495
20,ACTTCGCC,0.136
21,CGAGTTCA,-0.107
22,AAGGATAC,-0.00551
23,GGGCCTAA,-0.167
24,CCTTTACA,-0.131
25,CCACGATA,0.0643

row,Sequence,PBM E-score
1,AAACTGAA,-0.129
2,ACGACCGG,0.124
3,AAGGGTTC,-0.025
4,ACTTATTG,-0.165
5,ATTATGTG,0.0514
6,AACAGCCA,0.00093
7,CTCTAATA,-0.204
8,ACCTCGTG,-0.145
9,GCGCGACC,0.132
10,GTCCATGA,-0.209
11,CAGAAGGA,-0.262
12,AACCTAAG,-0.163
13,CAGTTAAA,-0.192
14,AGCCCTCG,-0.137
15,TTCTTAAA,-0.143
16,AACAGATG,-0.155
17,CCGTATGC,0.258
18,CACTGTCA,-0.237
19,CTCGCCTA,-0.092
